Measured values as given in PubChem BioAssay AID624417 (National Center for Advancing Translational Sciences (NCATS), 2012).
In all, about 410,000 compounds went through this assay and about 6,400 (1.6%) were called active. Inconclusive means that the source gave no clear call. Such entries were picked first, then a sample of the others. Calls come from the whole dose curve; as a rule, active = well fitted inhibition curve with a large enough effect; inconclusive = small, poorly fitted or top-dose-only effect; inactive = no such curve, though single readings can be large or run the other way. Potencies of inconclusive entries are doubtful fits and often do not repeat.

molecular target: Glucagon-like peptide 1 receptor (Homo sapiens) (UniProt P43220); experiment: qHTS of GLP-1 Receptor Inverse Agonists (Inhibition Mode); details: HEK293 GLP-1R CRE-luciferase, luminescence, 24 h, GLP-1R form is constitutively active; series mostly up to 38.3 µM; note: nearly all actives have a fitted effect of over 55% in size
Procedure, shortened: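 Constitutively active GLP-1R drives a cAMP-responsive luciferase in stably transfected HEK293 cells; test compounds are added after overnight (12 h) attachment and left 24 hr, and signal loss in luminescence marks inhibition.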
Potency is the fitted concentration of half-maximal effect; tags give direction and shape of the fitted curve.

Sequence of UniProt P43220 (P43220 whole entry, looked up): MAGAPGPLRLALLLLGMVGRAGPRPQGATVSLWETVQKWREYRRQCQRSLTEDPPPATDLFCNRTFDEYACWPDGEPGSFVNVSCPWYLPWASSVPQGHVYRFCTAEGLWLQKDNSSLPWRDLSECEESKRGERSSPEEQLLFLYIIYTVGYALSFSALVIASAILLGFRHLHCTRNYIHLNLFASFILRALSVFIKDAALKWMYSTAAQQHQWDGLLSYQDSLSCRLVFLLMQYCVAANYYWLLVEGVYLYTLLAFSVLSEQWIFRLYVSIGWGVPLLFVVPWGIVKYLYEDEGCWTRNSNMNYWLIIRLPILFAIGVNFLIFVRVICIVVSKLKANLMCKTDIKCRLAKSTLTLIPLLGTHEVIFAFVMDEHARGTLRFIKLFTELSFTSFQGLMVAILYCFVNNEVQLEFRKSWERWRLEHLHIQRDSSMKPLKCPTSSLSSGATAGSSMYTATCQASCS

Potency, active:
O=C(c1cnn2ccccc12)N(Cc1ccco1)C1CCCC1 3.55 µM, COc1cc(CCc2ccccc2)c(C(=O)O)c(O)c1CC=C(C)C 10 µM

Potency, inactive:
COc1cc(OC)cc(C(=O)Nc2cc(-c3nc4cccnc4s3)ccc2C)c1, COC(=O)CN1C(C)=Nc2ccc(C)cc2C1c1ccccc1 (centres undefined), CC(C)(C)NCC(O)COc1cccc2c1CC(O)C(O)C2 (centres undefined), CCCC(=O)Nc1cc(C)c2c(=O)oc3ccccc3c2n1

Potency, inconclusive:
Cc1ccc(C(=O)C=Cc2cccc(C)c2)cc1 5.01 µM [inhibitor, full curve], COc1ccc(C2/C=C\CN(C(=O)c3ccccc3)[C@H](Cc3ccccc3)C(=O)N2Cc2ccc(F)cc2)cc1 (some centres undefined) 12.6 µM [inhibitor, partial curve, poor fit], Fc1ccc(/C=N/n2cnn(Cc3ccccc3Cl)c2=S)cc1 10 µM [inhibitor, partial curve, poor fit], CC1Cc2ccccc2N1C(=O)CSc1nnc(NC(=O)Cc2cccs2)s1 (centres undefined) 2.82 µM [inhibitor, partial curve, poor fit], Cc1cc(C)c(S(=O)(=O)N2CCCC2)c(C)c1 31.6 µM [inhibitor, single point], O=C(N/N=C/c1ccccn1)c1cc(-c2ccncc2)nc2ccccc12 28.2 µM [inhibitor, single point], COc1ccc(/C=N/NC(=O)c2ccc(OC)c(OC)c2)cc1COc1c(F)c(F)c(F)c(F)c1F 12.6 µM [inhibitor, single point], CN1CCN(c2nc(Nc3ccc(F)cc3)nc(Nc3ccc(F)cc3)n2)CC1 15.8 µM [inhibitor, partial curve, poor fit], COc1ccccc1CNc1n[nH]c(NCc2ccccc2OC)n1 17.8 µM [inhibitor, partial curve, poor fit], COc1ccc2c(c1)cc1n2CCN=C1N 10 µM [inhibitor, partial curve, poor fit], Cc1cccc(OCCCSc2nc3ccccc3[nH]2)c1 1 µM [inhibitor, full curve, poor fit], CCOc1ccc2nc(N3CCCC(C(=O)NCCCN4CC(C)CC(C)C4)C3)sc2c1 (centres undefined) 3.98 µM [inhibitor, full curve, poor fit], c1ccc2c(-c3ccc4nncn4c3)cncc2c1 1.78 µM [inhibitor, full curve, poor fit], Cc1cccc(NS(=O)(=O)c2ccc(C)c(C(=O)NCC(c3cccs3)N(C)C)c2)c1 (centres undefined) 10 µM [inhibitor, partial curve, poor fit], Oc1c(Br)cc(Br)cc1CNc1cnc2ccccc2c1 12.6 µM [inhibitor, single point], COc1ccc2c(c1)c(CC(=O)OC(C)C(=O)N(C)C)c(C)n2C(=O)c1ccc(Cl)cc1 (centres undefined) 11.2 µM [inhibitor, partial curve, poor fit], O=C(/C=C\c1ccco1)Nc1cc([N+](=O)[O-])ccc1F 0.891 µM [inhibitor, full curve, poor fit], O=C(CSc1nc(C2CCCCC2)n(-c2ccccc2)n1)NCC(F)(F)F 17.8 µM [inhibitor, partial curve, poor fit], COc1ccc(CC(=O)N(Cc2nc(-c3ccc(C)cc3)no2)C(C)C)cc1 12.6 µM [inhibitor, single point], COc1ccc(N2CCN(C(=O)CN(c3ccc(OC)cc3)S(=O)(=O)c3ccccc3)CC2)cc1 28.2 µM [inhibitor, single point], O=c1c(Cl)c(N2CCN(S(=O)(=O)c3ccc(F)cc3)CC2)cnn1-c1cccc(Cl)c1 28.2 µM [inhibitor, single point], CC(C)(C)C(=O)Nc1nc2c(s1)CN(Cc1ccccc1)CC2 35.5 µM [inhibitor, partial curve, poor fit], O=S(=O)(Nc1cccc(Oc2ccc(Cl)cc2)n1)c1ccc(F)cc1 22.4 µM [inhibitor, partial curve, poor fit], COc1ccc(C2c3c(ncn(CCCN4CCOCC4)c3=N)Oc3ccc4ccccc4c32)cc1OC (centres undefined) 28.2 µM [inhibitor, single point], Cc1cc(C)c2c(c1)cc(C)c1nnc(SCC(=O)Nc3cc(C)on3)n12 3.55 µM [inhibitor, full curve], COC(=O)c1[nH]c2ccc(Br)cc2c1NC(=O)CN1CCCCC1CCO (centres undefined) 20 µM [inhibitor, single point], O=C(Nc1ccc2nc3n(c(=O)c2c1)CCCCC3)c1c(F)ccc([N+](=O)[O-])c1F 20 µM [inhibitor, single point], COC(=O)c1c(NC(=O)C2COc3ccccc3O2)sc2c1CCN(Cc1ccccc1)C2 (centres undefined) 1.78 µM [inhibitor, full curve, poor fit], CCOc1ccc2nc(C)cc(Nc3cccc([N+](=O)[O-])c3)c2c1 28.2 µM [inhibitor, single point], CCCCS(=O)(=O)N1CCCC(C(=O)Oc2ccccc2OC)C1 (centres undefined) 3.16 µM [inhibitor, single point], COc1ccc2nc(NC(=O)c3cccs3)sc2c1 10 µM [inhibitor, partial curve], Cc1ccccc1-c1noc(-c2ccc(N3CCN(C)CC3)c([N+](=O)[O-])c2)n1 0.501 µM [inhibitor, full curve, poor fit], O=C(COc1ccc(F)cc1Cl)NC1CCCCCC1 31.6 µM [inhibitor, single point]
